Data published in PMC4336329 (PLoS ONE, 2015).
In all, about 310,000 compounds went through this assay and about 2,200 (0.71%) showed an effect of 50% or more. Effects have a minus sign here. The list shows a part of the results.

Biological target: human ether-à-go-go-related gene (hERG) potassium channel (human, UniProt Q12809)
Assay: primary screen, population patch clamp on CHO cells stably expressing hERG

human ether-à-go-go-related gene (hERG) potassium channel, sequence (Q12809 whole entry, looked up): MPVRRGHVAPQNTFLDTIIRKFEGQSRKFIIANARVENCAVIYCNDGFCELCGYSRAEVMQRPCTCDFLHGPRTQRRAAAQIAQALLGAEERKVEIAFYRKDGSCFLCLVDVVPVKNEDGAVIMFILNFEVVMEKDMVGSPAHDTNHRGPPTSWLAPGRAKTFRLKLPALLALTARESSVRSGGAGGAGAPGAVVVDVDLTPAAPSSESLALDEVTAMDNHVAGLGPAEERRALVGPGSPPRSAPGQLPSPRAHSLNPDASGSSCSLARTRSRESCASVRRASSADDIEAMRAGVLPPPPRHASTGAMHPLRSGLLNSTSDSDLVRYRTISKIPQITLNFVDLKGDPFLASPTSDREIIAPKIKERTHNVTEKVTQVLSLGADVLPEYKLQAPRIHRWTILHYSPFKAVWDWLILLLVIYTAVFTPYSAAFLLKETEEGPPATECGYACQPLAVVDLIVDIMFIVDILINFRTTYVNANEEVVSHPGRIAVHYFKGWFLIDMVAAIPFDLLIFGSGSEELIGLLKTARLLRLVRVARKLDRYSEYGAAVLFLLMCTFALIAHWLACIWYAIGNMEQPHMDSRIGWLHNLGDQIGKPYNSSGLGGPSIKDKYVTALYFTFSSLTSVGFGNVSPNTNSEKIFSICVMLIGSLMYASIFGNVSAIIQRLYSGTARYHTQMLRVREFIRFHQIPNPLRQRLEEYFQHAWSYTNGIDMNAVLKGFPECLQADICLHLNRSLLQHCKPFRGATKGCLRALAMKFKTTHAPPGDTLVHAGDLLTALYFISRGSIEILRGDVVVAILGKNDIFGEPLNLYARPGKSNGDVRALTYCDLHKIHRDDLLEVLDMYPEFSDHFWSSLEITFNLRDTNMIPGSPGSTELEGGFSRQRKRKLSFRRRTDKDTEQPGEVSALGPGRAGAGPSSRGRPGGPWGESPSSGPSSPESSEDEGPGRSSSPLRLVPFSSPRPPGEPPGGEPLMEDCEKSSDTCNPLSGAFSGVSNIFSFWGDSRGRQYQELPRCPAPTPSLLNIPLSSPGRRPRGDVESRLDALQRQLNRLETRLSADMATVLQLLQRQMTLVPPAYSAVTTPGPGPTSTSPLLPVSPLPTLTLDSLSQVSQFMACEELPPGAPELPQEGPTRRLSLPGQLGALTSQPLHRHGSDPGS

Row | SMILES | hERG current change (%, negative = inhibition) at 1uM [%]
1 | OCCC1CCCCN1CC(O)COCc1ccc(Cl)cc1 (stereo not drawn) | 16.5
2 | CN1CCN(CCCNC(=O)Nc2ccc([N+](=O)[O-])cc2)CC1 | -3.49
3 | Cc1cccnc1NC(=O)C1COc2ccccc2O1 (stereo not drawn) | 16
4 | O=C(NCc1ccccc1)c1onc(CSc2ccncc2)c1C(=O)NCc1ccccc1 | 12.9
5 | Cc1ccc(C)c(N(C(=O)c2csnn2)C(C(=O)NC2CCCCC2)c2ccncc2)c1 (stereo not drawn) | 8.58
6 | Oc1ccc(C[C@H]2CNCCN2CCCCC2CCCCC2)cc1 | 9.03
7 | Cc1n[nH]c(C)c1S(=O)(=O)N1CCCC(C(=O)Nc2ccc(Br)cc2)C1 (stereo not drawn) | 9.82
8 | CCCCn1c(N)c(N(CC(C)C)C(=O)CCNC(=O)c2ccccc2Cl)c(=O)[nH]c1=O | 9.56
9 | O=C(/C=C/c1ccccc1)N/C(=C/c1ccccc1)C(=O)Nc1cccc(C(=O)O)c1 | 14.8
10 | COc1ccc(CN(C)Cc2cc(=O)oc3cc(C)c(C(C)C)cc23)cc1OC | 9.71
11 | COC(=O)c1c(C)noc1-c1snnc1C | 12.7
12 | COc1ccc(C2=NOC(C(=O)NCCCN3CCOCC3)C2)cc1 (stereo not drawn) | 7.72
13 | CCOC(=O)Cn1c(=O)c2c(nc3n2CC(C)CN3Cc2ccccc2)n(C)c1=O (stereo not drawn) | -4.09
14 | CCOc1ccc(Cn2nnc(C(=O)NCCc3ccccc3)c2N)cc1 | 8.95
15 | Cc1cc(C)cc(NC(=O)C(OC(=O)c2ccc(O)cc2)c2ccccc2)c1 (stereo not drawn) | 6.07
16 | O=C(O)CC(CNC(=O)C1CCCN1C(=O)OCc1ccccc1)c1ccccc1 (stereo not drawn) | 4.43
17 | Cc1cc(C(=O)NNC(=O)c2cccc([N+](=O)[O-])c2)n[nH]1 | 16.9
18 | COc1ccc(NC(=O)CN2CCN(c3ccc(F)cc3)CC2)cc1 | 7.86
19 | CC(=O)C1CCCN(C(=O)c2ccc3nc(Cc4cccc(Cl)c4)oc3c2)C1 (stereo not drawn) | 19.7
20 | O=C(NCCN1CCCCC1)c1cc(Cl)ccc1Cl | 7.28
21 | CCN(CC(=O)Nc1ccc(C(=O)OC)cc1)Cc1ccccc1.O=C(O)C(=O)O | 3.01
22 | CC(C)Cc1[nH]c(=O)c(C#N)c2c1CCCC2 | 2.89
23 | Cc1cc(F)ccc1S(=O)(=O)N1CCCOC1CNC(=O)C(=O)NCCc1ccccc1 (stereo not drawn) | 0.892

Row | SMILES | hERG current change (%, negative = inhibition) at 1uM [%]
24 | Cc1ccc(-c2nc3ccccn3c2C=O)cc1 | 7.01
25 | O=C(CN1C(=O)C(=O)c2ccccc21)c1ccc(Cl)cc1 | 10.3
26 | CCc1cc2c(CN(C)Cc3ccccc3F)cc(=O)oc2cc1O | 14.8
27 | Cc1oc(-c2ccc(Cl)cc2)nc1CSCC(=O)NC1CCN(Cc2ccccc2)CC1 | -19.2
28 | C=CCn1c(SCc2ccc(C(=O)Nc3nccs3)cc2)nnc1-c1ccc(C)c(Cl)c1 | 6.69
29 | O=C(C#Cc1ccccc1)Nc1ccccc1F | 13
30 | COc1ccc2cc(C3=CCCCC3)ncc2c1 | 3.62
31 | Cc1ccc([N+](=O)[O-])c2c1C(N1CCCCC1)C(C)(C)O2 (stereo not drawn) | -0.943
32 | CN1CCN(c2nc([N+](=O)[O-])nn2C)CC1 | 10.5
33 | Cc1ccc(NCc2nc3ccccc3n2C)cc1C | 12.1
34 | O=C(Cc1ccccc1)NCC(=O)OCC(=O)c1ccc(Cl)c([N+](=O)[O-])c1 | 7.7
35 | COc1ccc(C(=O)N/C(=C/c2ccc(Cl)cc2)C(=O)NCc2ccncc2)cc1 | -38.4
36 | Cc1nc[nH]c(=O)c1Br | 13.3
37 | CCc1nc(C)ccc1OCC(=O)O.Cl | -0.733
38 | CC(=O)/C(=N\Nc1ccc(C)cc1)Sc1nncn1C | -0.286
39 | CCCC(c1nnnn1CCc1ccccc1)N1CCN(C2CCCC2)CC1 (stereo not drawn) | -15.5
40 | O=C(Nc1ccccc1Cl)c1cc(=O)c2ccccc2o1 | 16.4
41 | COc1cccc(NC(=O)CN(C)C(C)C(=O)N2CCCC2)c1 (stereo not drawn) | 1.28
42 | COc1cc(/C=C/C(=O)OCN2C(=O)c3ccccc3C2=O)ccc1OC(F)F | 2.75
43 | Cc1cccc(NS(=O)(=O)c2c(C(=O)N3CCCC3)c(C)n(C)c2C)c1 | 16
44 | CC(=O)OC1N=C(c2ccccc2Cl)c2cc(Br)ccc2NC1=O (stereo not drawn) | -1.45
45 | CCc1cc2cc(C)ccc2nc1SCC(=O)N1CCN(C(=O)c2ccco2)CC1 | -4.38
46 | CCC(=O)Nc1nc(C)c(-c2csc(Nc3cccc(C(=O)O)c3)n2)s1 | -6.02

Row | SMILES | hERG current change (%, negative = inhibition) at 1uM [%]
47 | CN(C)c1ccc(CNn2cnnc2)cc1 | -4.49
48 | Cc1ccc2oc(=O)c3cnn(CC(=O)Nc4ccccc4N4CCN(C)CC4)c3c2c1 | 11.4
49 | CN(C)S(=O)(=O)c1cccc(NC(=O)COC(=O)/C=C/c2ccc(Br)o2)c1 | -1.91
50 | O=S1(=O)CC2(N3CCOCC3)CCCCCCC21 (stereo not drawn) | 9.96
51 | CC(C)(C)NC(=O)NC(=O)COC(=O)c1nc(-c2ccccc2)n(-c2cccc(C(F)(F)F)c2)n1 | 10.1
52 | COc1ccc(NC(=O)N2CCCC2C(=O)NCc2cccs2)cc1 (stereo not drawn) | 11.6
53 | COc1ccc2c(c1)[n+](=O)c(C(C)=O)c(C)n2[O-] | 16
54 | O=C(Oc1nsnc1N1CCOCC1)N(c1ccccc1)c1ccccc1 | -5.59
55 | COc1cc(C)ccc1OCCOCCOc1ccc(C)cc1[N+](=O)[O-] | 5.47
56 | O=[N+]([O-])c1ccccc1NCCOc1ccccc1 | 13
57 | CCc1nnc(NC(=O)C2=NN(C3CCS(=O)(=O)C3)C(=O)CC2)s1 (stereo not drawn) | 17.5
58 | O=C(O)c1cc(NS(=O)(=O)c2cccs2)cc(NS(=O)(=O)c2cccs2)c1 | 7.24
59 | CCCCNC(=S)NCCN1CCN(C(=S)NCCCC)CC1.Cl | -0.0402
60 | Cc1cc(C(=O)NCc2cccs2)nn1C | 11.1
61 | Cc1cc(NS(=O)(=O)Cc2ccccc2)cc(C)c1OCC(=O)N1CCOCC1 | 1.1
62 | CCOc1ccc(C2c3c(oc4ccccc4c3=O)C(=O)N2CCCN2CCOCC2)cc1OCC (stereo not drawn) | 6.43
63 | CCc1ccc(/C=C(\Cl)c2nc3cc(Cl)ccc3c(=O)[nH]2)cc1 | 11.6
64 | Cc1cccc(C)c1NC(=O)CCCn1nc(C)c2c(C)n(-c3ccccc3)nc2c1=O | 14.3
65 | O=C(O)c1[nH]c2ccccc2c1CC(=O)N1CCOCC1 | 11.1
66 | CN1CCN(S(=O)(=O)c2ccc(NC(=O)c3cccs3)cc2)CC1 | -3.17
67 | Cc1nn(-c2ccccc2)c(C)c1NC(=O)COc1ccc([N+](=O)[O-])cc1 | -30.3
68 | O=C(/C=C/Nc1ccc(F)cc1F)c1ccc(Br)cc1 | 14.5
69 | CN(CCN1CCOCC1)C(=O)CC1C(=O)NCCN1Cc1ccccc1C(F)(F)F (stereo not drawn) | 14.1

Row | SMILES | hERG current change (%, negative = inhibition) at 1uM [%]
70 | Cn1c(SCC(=O)Nc2ccc3nc(SCC(=O)N4CCCC4)sc3c2)nnc1-c1ccccc1 | 14
71 | CNC(=O)NC(=O)CN1C(=O)NC2(CCOc3ccccc32)C1=O (stereo not drawn) | 13.4
72 | O=C(CN1C(=O)C2(OCCO2)c2ccccc21)c1ccc(Cl)cc1 | -2.77
73 | CC(C)N1CCN(CC2COc3ccccc3O2)CC1.Cl (stereo not drawn) | -0.358
74 | CCOCCCNC(=S)Nc1ccc2nc(N3CCOCC3)cc(C)c2c1 | 9.64
75 | CCOC(=O)c1ccc(OC)c(OC)c1Cl | 12.9
76 | COCCCN(C(=O)Nc1cccc(Cl)c1)C(C)c1ccccn1 (stereo not drawn) | 15.9
77 | CCC1(C)COC(C)(CC(=O)NNC(=O)Nc2ccccc2)OC1 (stereo not drawn) | 3.32
78 | COc1ccc(N2CCN(C(=O)c3ccc(NS(=O)(=O)c4cccc(F)c4)cc3)CC2)cc1 | -7.54
79 | COc1cc(Br)c(Br)c(Br)c1N | 12.2
80 | CCOc1ccc(C(OC(=O)c2ccco2)C(=O)NCc2ccc(C)cc2)cc1 (stereo not drawn) | 14.8
81 | Cc1cccc(NC(=O)NCC2CC2)c1 | 11.3
82 | COc1ccc(C(=O)CSc2nnc(CNC(=O)c3ccccc3)n2C)cc1 | 10
83 | Cc1cc(C)cc(OCC(=O)Nc2cc(NC(=O)COc3cc(C)cc(C)c3)cc(C(=O)O)c2)c1 | 11.8
84 | COc1ccccc1/C=C/C(=O)NCC(=O)N/N=C/c1ccccc1 | 8.62
85 | CCCN(CCC)C(=O)C1c2ccccc2Oc2ccccc21 | 13.6
86 | CCOC(=O)c1c(-c2ccc(C)c(C)c2)csc1NC(=O)C1CC=CCC1C(=O)O (stereo not drawn) | 9.37
87 | CCc1ccc(NC(=O)Cn2nc(C(F)(F)F)c3c2CCC3)cc1 | 8.29
88 | O=C(/C=C/c1ccc2c(c1)OCCO2)c1ccccc1 | 0.833
89 | O=C(N/N=C/c1ccc(O)cc1)c1cc(C23CC4CC(CC(C4)C2)C3)[nH]n1 | 6.63
90 | COc1cc(OC)cc(C(=O)NC2CCSc3ccccc32)c1 (stereo not drawn) | 13.7
